# Assay results from PubChem BioAssay (Tox21).
# Values joined by “and” are separate entries in the source; they are usually repeats but may differ in a detail not shown here. Equal values may be shown once. The shares of active, inactive and inconclusive entries below differ from those in the screen. For part of these data: Where the call is inconclusive, the potency comes from a doubtful curve fit. The source holds several records for some structures; these can differ, active in one and inactive in another. Active and inactive are the calls of the source. Unless noted, calls follow the shape of the dose curve; as a rule, active = well fitted curve in the direction sought with a large enough effect in the repeat runs; inconclusive = weak or mixed curves; inactive = no such curve, though single readings can be large; an effect the other way counts as inactive or inconclusive.
# How the values were obtained:
# [1] = qHTS assay for small molecule agonists of the antioxidant response element (ARE) signaling pathway (AID 743202; active = well fitted activation curve with a large enough effect in the signal ratio in the repeat runs, not every such curve was filed as active; inconclusive = weak or mixed curves, or effect the other way; inactive = no such curve, though single readings can be large or run the other way; the % refers to the signal ratio; also: potency is read from the fitted curve at half-maximal effect); settings: HepG2 ARE-bla reporter, beta-lactamase FRET, 16 h; activation: at 73.3 µM (top of the series) unless noted
# Outline: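 HepG2 ARE-bla reporter line, 2,000 cells/well; 5 h preincubation 37 C/5% CO2; compound (DMSO) 16 h 37 C; B/G FRET substrate 2 h RT; fluorescence intensity.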
# [2] = qHTS assay for small molecule activators of the heat shock response signaling pathway (AID 743210; active = well fitted activation curve with a large enough effect in the signal ratio in the repeat runs, with a control signal flat, not every such curve was filed as active; inconclusive = weak or mixed curves; the % refers to the signal ratio; also: potency is read from the fitted curve at half-maximal effect;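 as to activation: HeLa cells with beta-lactamase reporter driven by heat shock elements; % is scaled to controls: 0 for no effect and ±100 for the full control effect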); settings: HeLa HSE-bla reporter, beta-lactamase ratio, 5 h; activation: at 62.6 µM (top of the series) unless noted
# Outline: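 Beta-lactamase reporter read-out: FRET substrate fluorescence after 2.5 h at RT, following 5 h compound treatment at 37 C of HeLa cells carrying HSE-driven bla reporter; quantitative HTS format.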
# [3] = qHTS assay to identify small molecule agonists of the peroxisome proliferator-activated receptor delta (PPARd) signaling pathway - cell viability counter screen (AID 743211); settings: PPARd-bla HEK293H viability, CellTiter-Glo luminescence, 17 h; activity change, negative = cytotoxicity: at 62.6 µM (top of the series); also: nearly all actives have a fitted effect of over 55% in size; also: potency is read from the fitted curve at half-maximal effect
# Outline: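 Following 5 h plating at 37 C and 5% CO2, PPARd UAS-bla HEK293H cells took up test compounds for 17 h. Viability was quantified by luminescence 30 min after CellTiter-Glo addition at room temperature.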
# [4] = qHTS assay to identify small molecule antagonists of the peroxisome proliferator-activated receptor delta (PPARd) signaling pathway - cell viability counter screen (AID 743213); settings: PPARd-bla HEK293H viability, CellTiter-Glo luminescence, 17 h; also: nearly all actives have a fitted effect of over 50% in size; also: potency is read from the fitted curve at half-maximal effect
# Outline: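 CellTiter-Glo was added to PPARd-bla HEK293H wells following 17 h compound treatment in the presence of 300 nM L165041. Luminescence was recorded after 30 min at room temperature.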
# [5] = target: Peroxisome proliferator-activated receptor delta (Homo sapiens) (UniProt Q03181); test: qHTS assay to identify small molecule antagonists of the peroxisome proliferator-activated receptor delta (PPARd) signaling pathway (AID 743215; active = well fitted inhibition curve with a large enough effect in the signal ratio in the repeat runs, not every such curve was filed as active; inconclusive = weak or mixed curves, or effect the other way; inactive = no such curve, though single readings can be large or run the other way; the % refers to the signal ratio;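 also: cells stimulated with agonist L165041 at 300 nM final during compound exposure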; also: potency is read from the fitted curve at half-maximal effect; as to ratio activity, negative = inhibition: % is scaled to controls: 0 for no effect and ±100 for the full control effect); settings: HEK293H PPARd-UAS-bla, beta-lactamase FRET ratio, antagonist, 17 h; ratio activity, negative = inhibition: at 62 µM (top of the series) unless noted
# Outline: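 Agonist L165041 (300 nM final) added with compound to PPARd-bla HEK293H UAS-bla reporter cells; 17 h incubation at 37 C. Read-out: LiveBLAzer FRET substrate, 2 h at room temperature, fluorescence intensity.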
# [6] = target: Vitamin D3 receptor (Homo sapiens) (UniProt P11473); test: qHTS assay to identify small molecule antagonists of the vitamin D receptor (VDR) signaling pathway (AID 743223; active = well fitted inhibition curve with a large enough effect in the signal ratio in the repeat runs, not every such curve was filed as active; inconclusive = weak or mixed curves, or effect the other way; inactive = no such curve, though single readings can be large or run the other way; the % refers to the signal ratio; also: potency is read from the fitted curve at half-maximal effect); settings: VDR-UAS-bla HEK293T, beta-lactamase FRET ratio, 16 h; activity change, negative = inhibition: at 61 µM (top of the series) unless noted
# Outline: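 Beta-lactamase activity in VDR-bla cells is measured by FRET substrate fluorescence (2 h, room temperature) after cells spend 16 h at 37C with test compound and 3 nM final 1alpha,25-dihydroxyvitamin D3.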
# [7] = qHTS assay to identify small molecule agonists of the vitamin D receptor (VDR) signaling pathway - cell viability counter screen (AID 743224); settings: VDR-bla HEK293T viability, CellTiter-Glo luminescence, 16 h; activity change, negative = cytotoxicity: at 62.6 µM (top of the series); also: nearly all actives have a fitted effect of over 50% in size; also: potency is read from the fitted curve at half-maximal effect; as to activity change, negative = cytotoxicity: % is scaled to controls: 0 for no effect and ±100 for the full control effect
# Outline: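 Counter screen run in the same wells as the VDR-bla reporter assay: CellTiter-Glo luminescence, 30 min at room temperature, after 16 h compound treatment at 37C of cells pre-plated for 4 h.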
# [8] = qHTS assay to identify small molecule agonists of the AP-1 signaling pathway (AID 1159526; calls by dose curve; also: potency is read from the fitted curve at half-maximal effect); settings: ME-180 (cervical carcinoma) AP-1-bla reporter, beta-lactamase FRET ratio, 5 h; activation: at 76.8 µM (top of the series) unless noted
# [9] = qHTS assay to identify small molecule agonists of the farnesoid-X-receptor (FXR) signaling pathway - cell viability counter screen (AID 743218); settings: FXR-bla HEK293T viability, CellTiter-Glo luminescence, 16 h; viability change, negative = cytotoxic: at 62.6 µM (top of the series) unless noted; also: nearly all actives have a fitted effect of over 45% in size; also: potency is read from the fitted curve at half-maximal effect
# Outline: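 Viability counter screen in the same wells: CellTiter-Glo luminescence, 30 min room-temperature incubation, measured after the beta-lactamase read. Cells were GeneBLAzer FXR-UAS-bla HEK 293T, compound-treated 16 h at 37C.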
# [10] = qHTS assay for small molecule activators of the heat shock response signaling pathway - cell viability counter screen (AID 743209); settings: HSE-bla HeLa viability, CellTiter-Glo luminescence, 5 h; activity change, negative = cytotoxicity: at 62.6 µM (top of the series); also: nearly all actives have a fitted effect of over 50% in size; also: potency is read from the fitted curve at half-maximal effect
# Outline: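 Cytotoxicity counter screen run in the same wells as the heat-shock bla reporter assay: HeLa HSE-bla cells, 5 h compound exposure at 37 C, viability read by CellTiter-Glo luminescence.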
# [11] = target: Peroxisome proliferator-activated receptor delta (Homo sapiens) (UniProt Q03181); test: qHTS assay to identify small molecule agonists of the peroxisome proliferator-activated receptor delta (PPARd) signaling pathway (AID 743212; calls by dose curve; also: potency is read from the fitted curve at half-maximal effect); settings: HEK293H PPARd-UAS-bla, beta-lactamase FRET ratio, 17 h; activation: at 62.6 µM (top of the series) unless noted
# Outline: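 Read-out: beta-lactamase FRET fluorescence after 2 h room-temperature incubation with LiveBLAzer B/G substrate. Cells were HEK293H carrying a UAS-bla reporter for PPARd, treated at 37 C with DMSO-dissolved compounds.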
# [12] = qHTS assay to identify small molecule antagonists of the vitamin D receptor (VDR) signaling pathway - cell viability counter screen (AID 743225); settings: VDR-bla HEK293T viability, CellTiter-Glo luminescence, 16 h; viability change, negative = cytotoxic: at 61 µM (top of the series) unless noted; also: nearly all actives have a fitted effect of over 50% in size; also: potency is read from the fitted curve at half-maximal effect
# Outline: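 In this counter screen, VDR-bla HEK 293T cells receive test compound plus 3 nM final calcitriol for 16 h at 37C. Room-temperature steps of 2 h with the beta-lactamase substrate, then 30 min with CellTiter-Glo, precede the luminescence read.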
# [13] = qHTS assay for small molecule agonists of the antioxidant response element (ARE) signaling pathway - cell viability counter screen (AID 743203; calls by dose curve; also: potency is read from the fitted curve at half-maximal effect; nearly all actives have a fitted effect of over 55% in size); settings: ARE-bla HepG2 viability, CellTiter-Glo luminescence, 16 h; viability change, negative = cytotoxic: at 73.3 µM (top of the series)
# Outline: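 Viability counter screen: CellTiter-Glo luminescence, read after 30 min at room temperature, in ARE-bla HepG2 wells. Compound exposure lasted 16 h at 37C/5% CO2, following a 5 h pre-incubation of the cells after plating.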
# [14] = target: Vitamin D3 receptor (Homo sapiens) (UniProt P11473); test: qHTS assay to identify small molecule agonists of the vitamin D receptor (VDR) signaling pathway (AID 743222; calls by dose curve; also: potency is read from the fitted curve at half-maximal effect); settings: HEK293T VDR-UAS-bla, beta-lactamase FRET ratio, 16 h; activation: at 63.5 µM (top of the series) unless noted
# Outline: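 Agonist mode, beta-lactamase reporter: fluorescence from LiveBLAzer B/G FRET substrate (2 h, room temperature) read after 16 h compound treatment at 37 C of VDR-bla cells, which were pre-incubated 4 h after seeding.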
# [15] = target: Bile acid receptor (Homo sapiens) (UniProt Q96RI1); test: qHTS assay to identify small molecule antagonists of the farnesoid-X-receptor (FXR) signaling pathway (AID 743217; active = well fitted inhibition curve with a large enough effect in the signal ratio in the repeat runs, not every such curve was filed as active; inconclusive = weak or mixed curves, or effect the other way; inactive = no such curve, though single readings can be large or run the other way; the % refers to the signal ratio; also: % is scaled to controls: 0 for no effect and ±100 for the full control effect); settings: HEK293T FXR-UAS-bla, beta-lactamase ratio, CDCA-stimulated, 16 h; activity change, negative = inhibition: at 62.6 µM (top of the series) unless noted
# Outline: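 Antagonist mode: chenodeoxycholic acid at 50 uM final stimulates a UAS-driven beta-lactamase reporter in HEK 293T FXR-bla cells during 16 h, 37C compound exposure. Read-out is FRET substrate fluorescence after 2 h at room temperature.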
# [16] = viability change, negative = cytotoxic: at 62 µM (top of the series) unless noted
# Tags tell the direction and shape of the fitted curve or compound fluorescence and quenching.
# UniProt P11473, sequence (P11473 whole entry, looked up): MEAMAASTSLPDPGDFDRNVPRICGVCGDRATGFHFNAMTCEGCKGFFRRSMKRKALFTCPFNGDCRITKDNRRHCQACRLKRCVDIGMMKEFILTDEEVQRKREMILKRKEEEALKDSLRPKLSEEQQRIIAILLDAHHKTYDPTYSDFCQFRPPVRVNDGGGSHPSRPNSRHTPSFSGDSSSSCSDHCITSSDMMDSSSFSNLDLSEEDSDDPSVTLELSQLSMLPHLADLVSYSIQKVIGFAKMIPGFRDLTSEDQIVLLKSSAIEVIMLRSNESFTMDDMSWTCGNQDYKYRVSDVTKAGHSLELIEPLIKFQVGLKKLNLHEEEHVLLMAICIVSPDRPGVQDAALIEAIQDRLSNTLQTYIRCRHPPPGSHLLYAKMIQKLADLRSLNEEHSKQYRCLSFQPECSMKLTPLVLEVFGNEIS
# UniProt Q03181, sequence (Q03181 whole entry, looked up): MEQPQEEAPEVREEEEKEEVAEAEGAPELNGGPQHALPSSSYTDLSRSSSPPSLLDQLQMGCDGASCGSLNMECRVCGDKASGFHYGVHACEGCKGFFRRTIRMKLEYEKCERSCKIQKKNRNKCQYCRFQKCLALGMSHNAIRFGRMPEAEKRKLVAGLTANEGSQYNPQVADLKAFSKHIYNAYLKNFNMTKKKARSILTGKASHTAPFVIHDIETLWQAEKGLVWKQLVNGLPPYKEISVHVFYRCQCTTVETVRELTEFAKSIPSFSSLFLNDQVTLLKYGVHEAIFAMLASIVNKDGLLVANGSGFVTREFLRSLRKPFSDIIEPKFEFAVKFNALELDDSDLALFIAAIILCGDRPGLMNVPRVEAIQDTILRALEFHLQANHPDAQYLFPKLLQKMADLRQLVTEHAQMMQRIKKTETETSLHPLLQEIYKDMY
# UniProt Q96RI1, sequence (Q96RI1 whole entry, looked up): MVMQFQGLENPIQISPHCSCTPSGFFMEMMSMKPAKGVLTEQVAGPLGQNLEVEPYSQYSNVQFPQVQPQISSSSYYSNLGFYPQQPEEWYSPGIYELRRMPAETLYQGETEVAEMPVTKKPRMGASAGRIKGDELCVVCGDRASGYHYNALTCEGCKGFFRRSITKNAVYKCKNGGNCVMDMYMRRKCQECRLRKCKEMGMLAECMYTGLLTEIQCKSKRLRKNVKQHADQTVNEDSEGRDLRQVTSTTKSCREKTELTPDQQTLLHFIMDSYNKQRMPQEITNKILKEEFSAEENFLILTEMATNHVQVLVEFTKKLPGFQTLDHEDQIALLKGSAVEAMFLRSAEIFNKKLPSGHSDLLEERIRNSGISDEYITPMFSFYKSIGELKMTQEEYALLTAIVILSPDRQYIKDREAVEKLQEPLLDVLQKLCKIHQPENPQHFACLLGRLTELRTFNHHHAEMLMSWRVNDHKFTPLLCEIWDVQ
compound,measurement,setting,value
CCCCCCCCCCCC(=O)N(C)CC(=O)O,Potency,[1],"inconclusive: 59.2 µM [rising, single point]"
same,Potency,[2],inactive
same,Potency,[3],"inconclusive: 21.2 µM [cytotoxic, single point]"
same,Potency,[4]; [16],"inconclusive: 26.7 µM [cytotoxic, partial curve]"
same,"ratio activity, negative = inhibition",[5],inconclusive: 6.15%
same,Potency,[6],"inconclusive: 21.2 µM [activator, single point]"
same,Potency,[7],inactive
same,Potency,[8],inconclusive: 21.2 µM [partial curve]
CN1[C@@H]2CC[C@H]1CC(OC(=O)c1c[nH]c3ccccc13)C2 (stereo not given in full),Potency,[1],inactive
same,Potency,[2],inactive
same,Potency,[3],inactive
same,Potency,[9],"inconclusive: 13.3 µM [cytotoxic, partial curve, poor fit]"
same,Potency,[8],active: 23.9 µM
O=C(CO)[C@@H](O)[C@H](O)[C@H](O)CO,Potency,[1],inactive
same,Potency,[10],"inconclusive: 0.0156 µM [rising, full curve, poor fit]"
same,Potency,[4]; [16],"inconclusive: 1.24 µM [cytotoxic, single point]"
same,Potency,[9],"inconclusive: 1.24 µM [rising, full curve, poor fit]"
same,Potency,[8],inactive
CCn1nc(Cc2ccccc2)cc1C1CCN(C[C@H]2C[C@H](N(C)[C@@H](C(=O)O)C(C)C)C[C@@H]2c2cccc(F)c2)CC1,activation,[1],inconclusive: -0.0957%
same,Potency,[10],"inconclusive: 15.5 µM [rising, partial curve, poor fit]"
same,Potency,[11],"inconclusive: 24.5 µM [rising, single point]"
same,"ratio activity, negative = inhibition",[5],inconclusive: 19.2%
same,Potency,[6],"inconclusive: 6.92 µM [fluorescent, full curve]"
same,Potency,[12],"inconclusive: 0.0019 µM [rising, full curve]"
same,Potency,[8],inactive
ON=C1CCCCC1,Potency,[1],inactive
same,Potency,[10],inconclusive: 61.6 µM [cytotoxic]
same,Potency,[2],"inconclusive: 54.9 µM [rising, single point]"
same,Potency,[3],"inconclusive: 54.9 µM [cytotoxic, single point]"
same,Potency,[4]; [16],"inconclusive: 27.5 µM [cytotoxic, partial curve, poor fit]"
same,Potency,[5],active: 43.6 µM
same,Potency,[9],"inconclusive: 0.0393 µM [rising, full curve, poor fit]"
same,Potency,[12],inactive
same,Potency,[8],inactive and inconclusive: 54.9 µM [single point]
CCCCc1ncc(/C=C(\Cc2cccs2)C(=O)O)n1Cc1ccc(C(=O)O)cc1,activation,[1],inconclusive: -16.9%
same,Potency,[13],"inconclusive: 0.298 µM [cytotoxic, single point]"
same,activation,[14],inconclusive: 7.99%
same,Potency,[8],"inconclusive: 12 µM [activator, partial curve, poor fit]"
C=Cc1c(C)c2cc3[nH]c(cc4nc(cc5nc(cc1[nH]2)C(C)=C5CCC(=O)O)C(CCC(=O)O)=C4C)c(C)c3C=C,Potency,[1],"inconclusive: 1.19 µM [falling, partial curve, poor fit]"
same,Potency,[2],"inconclusive: 33.5 µM [falling, partial curve, poor fit]"
same,Potency,[3],"inconclusive: 5.96 µM [cytotoxic, single point]"
same,Potency,[5],"inconclusive: 33.5 µM [activator, single point]"
same,"activity change, negative = inhibition",[6],inconclusive: 2.86%
same,"activity change, negative = cytotoxicity",[7],inconclusive: 6.62%
same,Potency,[8],"inconclusive: 6.74 µM [activator, partial curve, poor fit]"
CC(C)CCCCCCOC(=O)CCCCC(=O)OCCCCCCC(C)C,activation,[1],inconclusive: -7.22%
same,Potency,[10],inactive
same,Potency,[9],inactive
same,Potency,[6],inactive
same,activation,[8],inconclusive: -5.4%
O=S1(=O)c2cccc3cccc(c23)N1CCCN1CCN(c2ccc(F)cc2)CC1,activation,[1],inconclusive: 27.1%
same,Potency,[2],"inconclusive: 15 µM [falling, partial curve]"
same,Potency,[3],"inconclusive: 9.44 µM [cytotoxic, single point]"
same,activation,[11],inconclusive: 6.23%
same,"ratio activity, negative = inhibition",[5],inconclusive: -3.14%
same,Potency,[8],"inconclusive: 9.52 µM [falling, partial curve, poor fit]"
CCCSc1ccc2nc(NC(=O)OC)[nH]c2c1,activation,[1],inconclusive: 24.6%
same,Potency,[2],active: 16.7 µM
same,Potency,[3],"inconclusive: 1.38 µM [cytotoxic, full curve, poor fit]"
same,"viability change, negative = cytotoxic",[4]; at 62 µM (top of the series),inactive: 4.1%
same,"viability change, negative = cytotoxic",[4]; [16],inconclusive: -6.32% [cytotoxic]
same,Potency,[14],"inconclusive: 3.76 µM [rising, full curve, poor fit]"
same,Potency,[6],"inconclusive: 347 nM [inhibitor] and inconclusive: 674 nM [inhibitor, full curve]"
same,Potency,[12],"inconclusive: 0.389 µM [cytotoxic, full curve, poor fit]"
same,Potency,[8],"inconclusive: 4.9 µM [falling, partial curve, poor fit]"
CCC(Cl)CCC(Cl)C(Cl)CC(Cl)C(Cl)C(Cl)CCl (stereo not given),activation,[1],inconclusive: -7.88%
same,Potency,[2],"inconclusive: 61.1 µM [activator, single point]"
same,Potency,[3],"inconclusive: 54.4 µM [cytotoxic, single point]"
same,Potency,[4]; [16],"inconclusive: 48.5 µM [cytotoxic, partial curve, poor fit]"
same,Potency,[5],"inconclusive: 68.5 µM [rising, single point]"
same,Potency,[15],inactive
same,activation,[14],inconclusive: -42.5%
same,Potency,[6],inactive
same,Potency,[7],"inconclusive: 54.4 µM [cytotoxic, single point]"
same,Potency,[8],inconclusive: 61.1 µM
